Data as given in patent publication US4431809A, “Antibiotic A-33853 derivatives” (Eli Lilly and Company, priority 1982, dated 1984).
In brackets after ≈: the same amount, converted by molar mass. Read-outs that look alike come from different tables or passages of the source.

What was measured:
Assay type in all cases: cell-based
Vaccinia = assay: In vitro antiviral activity, Vaccinia; details: in words
Staphylococcus = tested on: Staphylococcus
Streptococcus = tested on: Streptococcus
Echo 10 = assay: In vitro antiviral activity, Echo 10; details: Echo 10, in words
[1] = tested on: Ann Arbor influenza virus type A; assay: In vitro antiviral activity, Ann Arbor influenza virus type A
Herpes virus type I = assay: In vitro antiviral activity, Herpes virus type I; details: in words
Polio virus type III = details: in words
Rhino virus = assay: In vitro antiviral activity, Rhino virus; details: in words
[2] = tested on: Staphylococcus aureus S13E; details: 24 h

SMILES | growth inhibition in vitro (Vaccinia) | growth inhibition in vitro (Staphylococcus; some within the genus Staphylococcus, in words) | growth inhibition in vitro (Streptococcus; some within the genus Streptococcus, in words) | growth inhibition in vitro (Echo 10) | growth inhibition in vitro [1] | growth inhibition in vitro (Herpes virus type I) | growth inhibition in vitro (Polio virus type III) | growth inhibition in vitro (Rhino virus) | growth inhibition in vitro (Staphylococcus) | growth inhibition in vitro (Streptococcus) | MIC [2]
O=C(Nc1c(O)cccc1-c1nc2c(C(=O)O)cccc2o1)c1ncccc1O [A-33853, 2-[3-hydroxy-2-[[(3-hydroxy-2-pyridinyl)carbonyl]amino]phenyl]-4-benzoxazolecarboxylic acid] | inhibits the growth in vitro | inhibit the growth in vitro | inhibit the growth in vitro | inhibits the growth in vitro | inhibits the growth in vitro | inhibits the growth in vitro | inhibits the growth in vitro | inhibits the growth in vitro | – | – | –
CC(=O)Oc1cccnc1C(=O)Nc1c(OC(C)=O)cccc1-c1nc2c(C(=O)O)cccc2o1 [diacetyl derivative] | – | – | – | – | – | – | – | – | inhibit the growth in vitro | inhibit the growth in vitro | 16 µg/mL (≈ 33.7 µM)
CC(=O)Oc1cccnc1C(=O)N(C(C)=O)c1c(OC(C)=O)cccc1-c1nc2c(C(=O)O)cccc2o1 [triacetyl derivative] | – | – | – | – | – | – | – | – | inhibit the growth in vitro | inhibit the growth in vitro | 32 µg/mL (≈ 61.8 µM)
